# From PubChem BioAssay AID463173 (ICCB-Longwood Screening Facility, Harvard Medical School, 2010)
# Out of some 52,000 compounds screened, about 1,700 (3.3%) were called active. No stated cut-off is given here; in the data, active means survival mostly below about 52% (no sharp cut-off); inactive means mostly above about 56%. Some of the results follow.
# Test system: Wild type
# Assay: growth inhibition of S. aureus wild type versus tarO mutant, primary screen, teichoic acid synthesis inhibitors, RN4220, OD600 (AID 463173)
# Details: S. aureus RN4220 wild type/DeltatarO growth, OD600, 18 h, hits give low values, screened at 18.75 µg/mL (by protocol)
row,SMILES,survival
1,CCc1ccc2ncc3c(-c4ccccc4)nn(-c4ccccc4)c3c2c1,active: 7%
2,Cc1onc2c1C(=O)CC(C)(C)C2,inactive: 103%
3,CCc1nnc(SCC(=O)Nc2ccccc2Cl)nc1CC,inactive: 73%
4,Cc1ccc(C)c(NC(=O)CC2NCCNC2=O)c1 (stereo not drawn),inactive: 71%
5,COc1cccc(NC(=O)CSc2nnc3scc(-c4ccc(Cl)cc4)n23)c1,inactive: 100%
6,COc1ccc(N(C(=O)c2ccc(OC)c(OC)c2)S(=O)(=O)c2ccc(Cl)cc2)cc1,inactive: 88%
7,Cc1cc(C)n2nc(C(=O)N/N=C/c3ccncc3)nc2n1,inactive: 85%
8,Cc1cc(NS(=O)(=O)c2ccc(NC(=O)c3ccccc3C)cc2)nc(C)n1,inactive: 78%
9,N#Cc1ccccc1Cn1c(=O)n(CCCC(=O)NCc2ccc3c(c2)OCO3)c(=O)c2sccc21,inactive: 126%
10,Cc1ccc(NC(=O)C2CCCN(c3nnc(-n4c(C)ccc4C)s3)C2)c(C)c1 (stereo not drawn),inactive: 128%
11,Cc1ccc2[nH]c(=O)c(CNCCCN(C)C)cc2c1,inactive: 99%
12,Cc1csc2nc(COC(=O)c3cccc(NC(=O)COc4ccc(Cl)cc4)c3)cc(=O)n12,inactive: 78%
13,O=C(CCCCn1c(=O)c2ccccc2n(Cc2ccccc2Cl)c1=O)NCCc1ccccc1,inactive: 132%
14,CCCC(C(=O)NCc1cccc(Cl)c1)N1Cc2ccccc2C1=O (stereo not drawn),inactive: 66%
15,Cc1ccn2c(=O)cc(COc3ccc(NC(=O)COc4ccc(Cl)cc4)cc3)nc2c1,inactive: 76%
16,CCCN(CCC)C(=O)Cn1c(=O)n(-c2cccc(OC)c2)c(=O)c2c3c(sc21)CCCC3,inactive: 85%
17,CC(=O)c1nn(-c2ccc(OC(F)(F)F)cc2)nc1Nc1ccc(C)cc1,inactive: 96%
18,Cc1cccc(/C=N/NC(=O)c2ccccn2)c1O,inactive: 18%
19,COc1ccccc1CNC(=O)CS(=O)Cc1nc(-c2ccc(OC)c(OC)c2)oc1C (stereo not drawn),inactive: 124%
20,CCOC(=O)c1ccc(NC(=O)C2CCN(S(=O)(=O)c3ccc(C)cc3)CC2)cc1,inactive: 70%

row,SMILES,survival
1,C=CCn1c(CCc2ccc(OC(C)C)cc2)n[nH]c1=S,inactive: 103%
2,Cc1ccc2nc(-c3ccc(NC(=O)COc4ccc(Cl)c(C)c4)cc3)sc2c1,inactive: 69%
3,COc1ccc(Nc2cc(C)c3cc(NC(=O)Cc4c(F)cccc4Cl)ccc3n2)cc1,inactive: 78%
4,CCN(Cc1ccccc1)C(=O)C1CCN(S(=O)(=O)c2c(C)noc2/C=C/c2ccc(C)cc2)CC1,inactive: 113%
5,CCC1CN(C(=O)N2CCC(C(=O)O)CC2)c2cc(C)ccc2O1 (stereo not drawn),inactive: 59%
6,Cc1ccc(CCNC(=O)c2ccc(CSCc3ccccc3C)o2)cc1,active: 0%
7,CCOc1ccc(CNS(=O)(=O)c2ccc(-c3cc(C(F)(F)F)on3)s2)cc1,inactive: 67%
8,COc1ccccc1CNC(=O)c1sc2nc3n(c(=O)c2c1C)CCC3,inactive: 110%
9,Cc1ccc2nc3sc(C(N)=O)c(N)c3cc2c1,inactive: 121%
10,CCn1c(SCc2ccccc2F)nc(=O)c2c(C(=O)OC)cc(C3CC3)nc21,inactive: 64%
11,Fc1ccc(C(c2nnnn2C2CCCC2)N(Cc2ccccc2)Cc2ccco2)cc1 (stereo not drawn),inactive: 110%
12,Cc1cccc(N2CCN(C(=O)c3ccc(NC(=O)c4nsc5ccccc45)cc3)CC2C)c1 (stereo not drawn),inactive: 81%
13,O=C(NCc1ccncc1)C1CCN(S(=O)(=O)c2ccccc2)CC1,inactive: 109%
14,CCOc1ccc(Cl)cc1C1CC(=O)Nc2cc(OC)c(OC)c(OC)c21 (stereo not drawn),inactive: 87%
15,CCCNc1ccc(-c2nc(-c3ccncc3)no2)cc1[N+](=O)[O-],inactive: 84%
16,CCOc1ccc(-c2cc(C(=O)NCc3ccc(C)cc3)c3ccccc3n2)cc1,inactive: 79%
17,COc1ccc(S(=O)(=O)N2CCN(c3cccc(Cl)c3C)CC2)cc1OC,inactive: 106%
18,CCOC(=O)C1CCCN(C(=O)Cn2ncc3c([nH]c4ccc(C)cc43)c2=O)C1 (stereo not drawn),inactive: 55%
19,Cc1ccccc1-c1nnc(SCC(=O)N2c3ccccc3Sc3ccccc32)o1,inactive: 105%
20,Cc1ccc(C)c(N2CCN(C(=O)c3ccc4[nH]c(C)c(C)c4c3)CC2)c1,inactive: 74%

row,SMILES,survival
1,CC(Sc1nnc(C2CCCCC2)n1-c1cccc(Cl)c1)C(=O)O (stereo not drawn),inactive: 122%
2,CCCC(CCC)C(=O)Nc1cccc(-c2cn3cccnc3n2)c1,inactive: 75%
3,Cc1ccc(OCc2nc(-c3ccc(C(=O)NCCc4ccc(S(N)(=O)=O)cc4)cc3)oc2C)cc1,inactive: 84%
4,CCc1ccc(NC(=O)CCCc2nc(-c3ccco3)no2)cc1,inactive: 79%
5,COc1cc2[nH]c(=O)n(CCCC(=O)NCc3ccccc3)c(=O)c2cc1OC,inactive: 133%
6,COc1ccccc1CNC(=O)CN1C(=O)CCc2cc(S(=O)(=O)N3CCOCC3)ccc21,inactive: 131%
7,O=C(Nc1ccc2nc(SCC(=O)N3CCCC3)sc2c1)c1ccccc1F,inactive: 70%
8,COc1ccc(CNC(=O)c2c(Nc3ccccc3C)sc(C(=O)c3ccccc3)c2N)cc1,inactive: 70%
9,O=C(CCc1ccccc1)NNc1cc(N2CCCCC2)nc(N2CCCCC2)n1,inactive: 110%
10,COc1ccc2[nH]c3c(=O)n(/N=C/c4ccccc4)cnc3c2c1,inactive: 108%
11,COc1ccc(NC(=O)c2cc(-c3ccccc3O)no2)cc1,inactive: 83%
12,CC1CN(C(=O)N2CCC(C(=O)NCc3ccco3)CC2)c2cc(Cl)ccc2O1 (stereo not drawn),inactive: 84%
13,Cc1ccc(NC(=O)CN2C(=O)CCc3cc(S(=O)(=O)N4CCCCC4)ccc32)cc1N(C)C,inactive: 73%
14,O=C(CSc1nc(-c2cccs2)nc2cc(=O)[nH]n12)Nc1ccc(F)cc1,inactive: 75%
15,CCOc1ccc(NC(=O)CNS(=O)(=O)c2ccc(Br)s2)cc1,inactive: 70%
16,CC(C)NC(=O)C1CCCN1C(=O)Nc1ccccc1 (stereo not drawn),inactive: 109%
17,CCOC(=O)c1cnc2c(C(F)(F)F)cccc2c1Nc1cccc(C(=O)OC)c1,inactive: 26%
18,CCOc1ccccc1NC(=O)CSc1nc2c(oc3ccccc32)c(=O)n1Cc1ccco1,inactive: 86%
